Laboratory results taken from patent US10266544B2, “Aryl substituted aminomethyl spectinomycin analogs as antibacterial agents” (ST. JUDE CHILDREN'S RESEARCH HOSPITAL, INC., priority 2013, dated 2019).

Target: purified Mycobacterium smegmatis 70S bacterial ribosomes (Mycolicibacterium smegmatis, UniProt A0QSG6)
Test: biochemical
Procedure: Aryl substituted aminomethyl spectinomycin analogs were synthesized as described above. Ribosomal inhibition (IC50) was determined in the ribosomal inhibition assay as described above and the data are shown in Table 2. The compound number corresponds to the compound numbers used in Table 1.
3′-Methylene aryl substituted aminomethyl spectinomycin analogs were evaluated for potency as ribosomal inhibitors using purified mycobacterial ribosomes, as described previously (Salian, et al. Antimicrob Agents Chemother. 2011 56(12), 6104-6108). […] Without wishing to be bound by a particular theory, the meta position appeared to be less preferred for substitution than para position. Adding a trifluoromethoxy (10) decreased binding by 10-fold. […] Without wishing to be bound by a particular theory, introduction of a nitrogen to the ortho (16) and meta (7) position of non-substituted aryl analog 1 was favorable, decreasing IC50's to 0.4 μg/mL in each case.

Chain of purified Mycobacterium smegmatis 70S bacterial ribosomes (A0QSG6 whole entry): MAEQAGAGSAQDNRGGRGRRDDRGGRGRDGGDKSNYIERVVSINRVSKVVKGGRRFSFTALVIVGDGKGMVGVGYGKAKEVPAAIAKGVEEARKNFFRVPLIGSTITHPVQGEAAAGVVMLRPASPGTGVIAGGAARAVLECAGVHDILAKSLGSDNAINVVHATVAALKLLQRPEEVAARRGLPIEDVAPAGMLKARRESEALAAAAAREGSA

Row | Compound | IC50 (IC50) | also measured
1 | CN[C@@H]1[C@H](O)[C@H](NC)[C@H]2O[C@]3(O)[C@H](O[C@@H]2[C@H]1O)O[C@H](C)C[C@@]3(O)CNCCc1ccc(C)c(C)c1 [compound 55, 3′-(R)-3′-[(3,4-dimethyl)phenethylaminomethyl]dihydrospectinomycin Trihydrochloride] | 4360 nM | IC50 (IC50 (Sm)): 4360 nM
2 | CN[C@@H]1[C@H](O)[C@H](NC)[C@H]2O[C@]3(O)[C@H](O[C@@H]2[C@H]1O)O[C@H](C)C[C@@]3(O)CNCc1ccc(F)c(F)c1 [compound 12, 3′-(R)-3′-[(3,4-difluoro)benzylaminomethyl)]dihydrospectinomycin Trihydrochloride] | 4270 nM | –
3 | CN[C@@H]1[C@H](O)[C@H](NC)[C@H]2O[C@]3(O)[C@H](O[C@@H]2[C@H]1O)O[C@H](C)C[C@@]3(O)CNCCN1CCOCC1 [compound 51, 3′-(R)-3′-[(2-morpholinoethyl)aminomethyl]dihydrospectinomycin tetrahydrochloride] | 797 nM | IC50 (IC50 (Sm)): 797 nM
4 | CN[C@@H]1[C@H](O)[C@H](NC)[C@H]2O[C@]3(O)[C@H](O[C@@H]2[C@H]1O)O[C@H](C)C[C@@]3(O)CNCCc1ccc(Cl)cc1 [compound 54, 3′-(R)-3′-[(4-chloro)phenethylaminomethyl]dihydrospectinomycin Trihydrobromide] | 5940 nM | IC50 (IC50 (Sm)): 5940 nM
5 | CCc1ccc(CNC[C@]2(O)C[C@@H](C)O[C@H]3O[C@@H]4[C@@H](O)[C@H](NC)[C@H](O)[C@H](NC)[C@H]4O[C@]32O)cc1 [compound 3, 3′-(R)-3′-[(4-ethyl)benzylaminomethyl)]dihydrospectinomycin Trihydrochloride] | 498 nM | –
6 | CN[C@@H]1[C@H](O)[C@H](NC)[C@H]2O[C@]3(O)[C@H](O[C@@H]2[C@H]1O)O[C@H](C)C[C@@]3(O)CNCc1ccc(C(F)(F)F)cc1 [compound 5, 3′-(R)-3′-[(4-trifluoromethyl)benzylaminomethyl)]dihydrospectinomycin Trihydrochloride] | 1670 nM | –
7 | CN[C@@H]1[C@H](O)[C@H](NC)[C@H]2O[C@]3(O)[C@H](O[C@@H]2[C@H]1O)O[C@H](C)C[C@@]3(O)CNCCCc1ccccc1 [compound 13, 3′-(R)-3′-(phenylpropylaminomethyl)dihydrospectinomycin Trihydrochloride] | 519 nM | –
8 | CN[C@@H]1[C@H](O)[C@H](NC)[C@H]2O[C@]3(O)[C@H](O[C@@H]2[C@H]1O)O[C@H](C)C[C@@]3(O)CNCc1cnc[nH]1 [compound 20] | 564 nM | –
9 | CN[C@@H]1[C@H](O)[C@H](NC)[C@H]2O[C@@]3(O)C(=O)C[C@@H](C)O[C@H]3O[C@@H]2[C@H]1O [SPC, (2R,4aR,5aR,6S,7S,8R,9S,9aR,10aS)-4a,7,9-trihydroxy-2-methyl-6,8-bis(methylamino)decahydro-4H-benzo[b]pyrano[2,3-e][1,4]dioxin-4-one, reference compound] | – | IC50 (Sm) ([…]): 0.36 µg/mL (≈ 1.08 µM); IC50 (luciferase-based protein synthesis inhibition assay, purified Mycobacterium smegmatis ribosomes): 0.39 µg/mL
10 | CN[C@@H]1[C@H](O)[C@H](NC)[C@H]2O[C@]3(O)[C@H](O[C@@H]2[C@H]1O)O[C@H](C)C[C@]3(O)CNCc1ccc(F)cc1 [compound 28, 3′-(S)-3′-[(4-fluoro)benzylaminomethyl)]dihydrospectinomycin Trihydrochloride] | 35200 nM | –
11 | CN[C@@H]1[C@H](O)[C@H](NC)[C@H]2O[C@]3(O)[C@H](O[C@@H]2[C@H]1O)O[C@H](C)C[C@@]3(O)CNCCc1ccc(C)cc1 [compound 32, 3′-(R)-3′-[(4-Methyl)]Phenethylaminomethyl)]Dihydrospectinomycin Trihydrochloride] | – | IC50 (IC50 (Sm)): 1020 nM
12 | CN[C@@H]1[C@H](O)[C@H](NC)[C@H]2O[C@]3(O)[C@H](O[C@@H]2[C@H]1O)O[C@H](C)C[C@@]3(O)CNCc1ccc(Cl)cc1 [compound 18, 3′-(R)-3′-(4-Chlorobenzylaminomethyl)dihydrospectinomycin Trihydrobromide] | 697 nM | –
13 | CN[C@@H]1[C@H](O)[C@H](NC)[C@H]2O[C@]3(O)[C@H](O[C@@H]2[C@H]1O)O[C@H](C)C[C@@]3(O)CNCc1ccccn1 [compound 16, 3′-(R)-3′-(2-pyridinylmethylaminomethyl)dihydrospectinomycin Tetrahydrobromide] | 880 nM and 968 nM | –
14 | CN[C@@H]1[C@H](O)[C@H](NC)[C@H]2O[C@]3(O)[C@H](O[C@@H]2[C@H]1O)O[C@H](C)C[C@@]3(O)CNCc1cccnc1 [compound 7, 3′-(R)-3′-(3-pyridinylmethylaminomethyl)dihydrospectinomycin Tetrahydrobromide] | 880 nM and 902 nM | –
15 | CN[C@@H]1[C@H](O)[C@H](NC)[C@H]2O[C@]3(O)[C@H](O[C@@H]2[C@H]1O)O[C@H](C)C[C@@]3(O)CNCCC1CCOCC1 [compound 52, 3′-(R)-3′-[(2-(tetrahydro-2H-pyran-4-yl)ethyl)aminomethyl]dihydrospectinomycin Trihydrochloride] | 715 nM | IC50 (IC50 (Sm)): 715 nM
16 | CN[C@@H]1[C@H](O)[C@H](NC)[C@H]2O[C@]3(O)[C@H](O[C@@H]2[C@H]1O)O[C@H](C)C[C@@]3(O)CNCc1ccccc1Cl [compound 56, 3′-(R)-3′-[(2-chloro)benzylaminomethyl]dihydrospectinomycin Trihydrobromide] | 43800 nM | IC50 (IC50 (Sm)): 43800 nM
17 | CN[C@@H]1[C@H](O)[C@H](NC)[C@H]2O[C@]3(O)[C@H](O[C@@H]2[C@H]1O)O[C@H](C)C[C@@]3(O)CNCc1ccc(F)cc1 [compound 2, 3′-(R)-3′-[(4-fluoro)benzylaminomethyl)]dihydrospectinomycin Trihydrochloride] | 1570 nM | change of ribosomal inhibitory potency on fluorination of the aryl ring: slight loss of potency
18 | CN[C@@H]1[C@H](O)[C@H](NC)[C@H]2O[C@]3(O)[C@H](O[C@@H]2[C@H]1O)O[C@H](C)C[C@@]3(O)CNCc1ccc(Cl)s1 [compound 21, 3′-(A′)-3′-[(5-Chloro)-2-thiophenylmethylaminomethyl)dihydrospectinomycin Trihydrobromide] | 810 nM | –
19 | CN[C@@H]1[C@H](O)[C@H](NC)[C@H]2O[C@]3(O)[C@H](O[C@@H]2[C@H]1O)O[C@H](C)C[C@@]3(O)CNCc1ccccc1OC(F)(F)F [compound 10, Trihydrochloride] | 17800 nM | decrease in binding: 10 fold
20 | CN[C@@H]1[C@H](O)[C@H](NC)[C@H]2O[C@]3(O)[C@H](O[C@@H]2[C@H]1O)O[C@H](C)C[C@@]3(O)CNCCc1ccccc1 [compound 6, 3′-(R)-3′-(phenethylaminomethyl)dihydrospectinomycin Trihydrochloride] | 492 nM | –
21 | CN[C@@H]1[C@H](O)[C@H](NC)[C@H]2O[C@]3(O)[C@H](O[C@@H]2[C@H]1O)O[C@H](C)C[C@@]3(O)CNCc1ccc(OC(F)(F)F)cc1 [compound 11, 3′-(R)-3′-[(4-trifluoromethoxyl)benzylaminomethyl)]dihydrospectinomycin Trihydrochloride] | 2140 nM | –

Values after ≈ are worked out from the molar mass of the structure shown. Values joined by “and” are separate entries in the source; they are usually repeats but may differ in a detail not shown here. Equal values may be shown once. Where a name gives a salt, the structure may show the parent alone.
